Measured values: the supplement of paper PMC4996465
Viability of KB3-1 and Nalm-6 cells after 48 h of drug alone (CellTiter-Glo), 11 doses over about 4.5 log units. % of DMSO wells, lower = more cell loss; AC50 from the fitted curve, lower = more potent. No active / inactive call. Nalm-6 was screened in two runs. AC50 is listed only for well-fitted inhibitory curves. KB3-1 is a HeLa-derived carcinoma line, Nalm-6 a B-cell precursor leukaemia line.

How the values were obtained:
Nalm-6 [1] = test: log AC50 of viability decrease (48 h) (log10 M); higher = less potent
Protocol: (§1)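 Eleven-dose screen of the NCATS MIPE 3 library on cells without co-treatment; CellTiter-Glo after 48 h. AC50 from the curve fit; only inhibitory curves of the better fit classes are listed.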

KB3-1 [2] = test: as above
Protocol: as §1

Nalm-6 [3] = test: viability (% of DMSO control); higher = more viable cells
Protocol: (§2)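 Eleven-dose screen of the NCATS MIPE 3 library on cells without co-treatment; CellTiter-Glo after 48 h, as % of DMSO wells.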

KB3-1 [4] = test: as above
Protocol: as §2

| SMILES | log AC50 of viability decrease (Nalm-6 [1]; run: 1) | log AC50 of viability decrease (Nalm-6 [1]; run: 2) | log AC50 of viability decrease (KB3-1 [2]) | viability (Nalm-6 [3]; run: 1, 0.00078 µM) | viability (Nalm-6 [3]; run: 1, 0.00234 µM) | viability (Nalm-6 [3]; run: 1, 0.00702 µM) | viability (Nalm-6 [3]; run: 1, 0.0211 µM) | viability (Nalm-6 [3]; run: 1, 0.0632 µM) | viability (Nalm-6 [3]; run: 1, 0.19 µM) | viability (Nalm-6 [3]; run: 1, 0.569 µM) | viability (Nalm-6 [3]; run: 1, 1.71 µM) | viability (Nalm-6 [3]; run: 1, 5.12 µM) | viability (Nalm-6 [3]; run: 1, 15.4 µM) | viability (Nalm-6 [3]; run: 1, 46.1 µM) | viability (Nalm-6 [3]; run: 2, 0.00078 µM) | viability (Nalm-6 [3]; run: 2, 0.00234 µM) | viability (Nalm-6 [3]; run: 2, 0.00702 µM) | viability (Nalm-6 [3]; run: 2, 0.0211 µM) | viability (Nalm-6 [3]; run: 2, 0.0632 µM) | viability (Nalm-6 [3]; run: 2, 0.19 µM) | viability (Nalm-6 [3]; run: 2, 0.569 µM) | viability (Nalm-6 [3]; run: 2, 1.71 µM) | viability (Nalm-6 [3]; run: 2, 5.12 µM) | viability (Nalm-6 [3]; run: 2, 15.4 µM) | viability (Nalm-6 [3]; run: 2, 46.1 µM) | viability (KB3-1 [4]; 0.00078 µM) | viability (KB3-1 [4]; 0.00234 µM) | viability (KB3-1 [4]; 0.00702 µM) | viability (KB3-1 [4]; 0.0211 µM) | viability (KB3-1 [4]; 0.0632 µM) | viability (KB3-1 [4]; 0.19 µM) | viability (KB3-1 [4]; 0.569 µM) | viability (KB3-1 [4]; 1.71 µM) | viability (KB3-1 [4]; 5.12 µM) | viability (KB3-1 [4]; 15.4 µM) | viability (KB3-1 [4]; 46.1 µM) |
| --- | --- | --- | --- | --- | --- | --- | --- | --- | --- | --- | --- | --- | --- | --- | --- | --- | --- | --- | --- | --- | --- | --- | --- | --- | --- | --- | --- | --- | --- | --- | --- | --- | --- | --- | --- | --- |
| CCOc1ccc(Nc2nc(-c3c(C)nc4ccccn34)cs2)cc1 [JK 184] | -7.98 | -7.98 | -8.23 | 108% | 113% | 90.3% | 23.4% | 26.7% | 13.2% | 12.6% | 11.4% | 12.4% | 10.1% | 6.94% | 105% | 97.4% | 83.5% | 14.9% | 21.5% | 7.87% | 8.44% | 8% | 8.13% | 8.87% | 5.42% | 110% | 99.8% | 54.9% | 29.3% | 24.8% | 19.3% | 19% | 18.9% | 16.6% | 18.9% | 9.9% |
| COc1ccc(S(=O)(=O)N(CCO)c2ccccc2CN(C)C(=O)/C=C/c2ccc(Cl)cc2)cc1 [KN-93] | -4.73 | -4.78 | -4.68 | 96.3% | 102% | 99.3% | 113% | 111% | 104% | 98.3% | 81.3% | 60% | 60.1% | 0.955% | 104% | 104% | 97.7% | 99.7% | 107% | 107% | 95.4% | 83.6% | 62% | 58.9% | 1.13% | 91.1% | 87.9% | 94.5% | 90.2% | 93.7% | 94.2% | 94.3% | 88.4% | 77.7% | 77.1% | 37.7% |
| C[C@@]12O[C@@H](C[C@]1(O)CO)n1c3ccccc3c3c4c(c5c6ccccc6n2c5c31)CNC4=O [Lestaurtinib] | -6.93 | -6.68 | -7.53 | 107% | 115% | 86.1% | 77.1% | 56.8% | 51.1% | 41.1% | 38% | 17.6% | 4.74% | 1.03% | 100% | 102% | 90.9% | 80.2% | 62.1% | 53.1% | 41.1% | 18.6% | 7.47% | 2.19% | 0.673% | 104% | 96.4% | 83.7% | 64.3% | 50.6% | 49.7% | 50.4% | 48.8% | 46.1% | 47.8% | 1.11% |
| CC1(C)Cc2c(-c3ccccc3)c(-c3ccc(Cl)cc3)c(CC(=O)O)n2C1 [Licofelone] | -4.83 | -4.73 | -4.78 | 88.5% | 100% | 103% | 107% | 104% | 116% | 120% | 110% | 111% | 68.7% | 35.6% | 94.2% | 97.2% | 104% | 107% | 93.6% | 109% | 105% | 102% | 103% | 73.9% | 10.3% | 95.7% | 95.4% | 103% | 104% | 100% | 101% | 105% | 99.2% | 94.9% | 70.6% | 40.1% |
| Cc1ccc(F)c(NC(=O)Nc2ccc(-c3cccc4[nH]nc(N)c34)cc2)c1 [Linifanib] | -5.28 | -5.28 | -4.88 | 97.5% | 106% | 109% | 113% | 100% | 109% | 106% | 108% | 56.4% | 23.4% | 3.28% | 103% | 108% | 101% | 110% | 107% | 101% | 100% | 92.5% | 51.3% | 13.5% | 2.46% | 103% | 105% | 104% | 99.3% | 105% | 104% | 111% | 101% | 71.2% | 42.4% | 5.2% |
| C[C@]1(O)CC(C1)C2=NC(=C3[N]2C=CN=C3N)C4=CC5=C(C=C4)C=CC(=N5)C6=CC=CC=C6 (stereo unspecified) [Linsitinib] | -4.63 | -4.53 | -4.73 | 110% | 109% | 117% | 118% | 103% | 114% | 114% | 113% | 94.7% | 95.9% | 5.37% | 109% | 105% | 104% | 105% | 106% | 99.2% | 106% | 100% | 91.9% | 81.1% | 2.64% | 99.1% | 102% | 101% | 101% | 94.3% | 87.9% | 92.3% | 83.9% | 78.6% | 78.3% | 48.3% |
| CCCCCCCc1ccc(CCc2cccc(O)c2C(=O)O)cc1 [MG-149] | – | -4.63 | -4.73 | 105% | 113% | 116% | 110% | 112% | 121% | 122% | 117% | 126% | 106% | 36.1% | 109% | 106% | 110% | 113% | 106% | 110% | 110% | 106% | 106% | 97.8% | 46.7% | 107% | 106% | 108% | 108% | 113% | 111% | 106% | 106% | 95.8% | 96% | 66.9% |
| CC(C)c1ccc2c(c1)c(SC(C)(C)C)c(CC(C)(C)C(=O)O)n2Cc1ccc(Cl)cc1 [MK-886] | -4.88 | -4.88 | -4.93 | 93.1% | 99.6% | 109% | 97.6% | 96.4% | 122% | 119% | 119% | 106% | 44.1% | 10.9% | 97% | 96.8% | 108% | 102% | 103% | 104% | 110% | 106% | 102% | 44.1% | 8.1% | 102% | 101% | 99.3% | 104% | 107% | 104% | 110% | 104% | 92.9% | 58.6% | 37.5% |
| C=CCn1c(=O)c2cnc(Nc3ccc(N4CCN(C)CC4)cc3)nc2n1-c1cccc(C(C)(C)O)n1 [MK-1775] | – | -6.73 | -6.78 | 1.81% | 9.67% | 24.9% | 33.9% | 47.1% | 17.9% | 4.83% | 3.23% | 3.77% | 4.82% | 5.88% | 105% | 112% | 114% | 113% | 99.8% | 56.3% | 14.8% | 4.46% | 4.11% | 5.02% | 5.71% | 107% | 99.2% | 97.6% | 94.2% | 81.8% | 51.1% | 8.79% | 6.85% | 6.45% | 6.67% | 7.48% |
| Cc1ccc(NC(=O)c2ccc(CN3CCN(C)CC3)cc2)cc1Nc1nc(-c2cccnc2)cs1 [Masitinib] | -4.93 | -4.68 | -4.63 | 117% | 116% | 116% | 119% | 119% | 100% | 114% | 113% | 81.4% | 52.2% | 21.8% | 113% | 111% | 105% | 106% | 109% | 108% | 106% | 104% | 69.5% | 93.2% | 11.3% | 105% | 101% | 107% | 102% | 106% | 106% | 106% | 97.2% | 93.3% | 85% | 14.3% |
| CO[C@@H]1[C@H](N(C)C(=O)c2ccccc2)C[C@H]2O[C@]1(C)n1c3ccccc3c3c4c(c5c6ccccc6n2c5c31)C(=O)NC4 [Midostaurin] | -6.58 | -6.33 | -5.98 | 99.7% | 110% | 113% | 109% | 105% | 82.1% | 52.4% | 43.9% | 37.2% | 36.7% | 33.1% | 103% | 106% | 105% | 101% | 103% | 72.3% | 66.6% | 53.8% | 48% | 38.2% | 30.3% | 100% | 98% | 96.9% | 95% | 94.1% | 89.6% | 65.8% | 64.9% | 45.4% | 38.2% | 34% |
| CC#C[C@]1(O)CC[C@H]2[C@@H]/3CCC/4=C/C(=O)CCC4=C3[C@H](C[C@]12C)C5=CC=C(C=C5)N(C)C [Mifepristone] | -4.63 | – | -4.63 | 98.9% | 105% | 105% | 104% | 101% | 104% | 97.8% | 107% | 99.6% | 82.5% | 3.79% | 6.37% | 107% | 102% | 103% | 102% | 104% | 90.7% | 103% | 100% | 95.1% | 4.18% | 107% | 104% | 100% | 104% | 104% | 101% | 98.9% | 97.8% | 93.6% | 84.6% | 11.7% |
| Nc1ccccc1NC(=O)c1ccc(CNc2nccc(-c3cccnc3)n2)cc1 [Mocetinostat] | -6.63 | -6.88 | -6.73 | 112% | 118% | 112% | 99.4% | 100% | 70.6% | 9.98% | 5.27% | 5.08% | 4.74% | 3.68% | 104% | 96.7% | 94.3% | 92% | 79.3% | 38.4% | 6.67% | 4.3% | 4.05% | 3.84% | 2.56% | 97% | 103% | 98.7% | 85.6% | 83.9% | 56.4% | 29.7% | 12.9% | 12.7% | 12.5% | 19.1% |
| O=C1\C=C(OC2=C(C=CC=C12)C3=CC=CC4=C3SC5=C4C=CC=C5)\N6CCOCC6 [NU-7441] | -4.78 | -4.78 | -4.53 | 100% | 103% | 113% | 105% | 102% | 115% | 102% | 90.7% | 76.8% | 46.6% | -0.43% | 110% | 112% | 107% | 114% | 111% | 114% | 118% | 109% | 100% | 58.9% | 0.611% | 100% | 98.8% | 94.4% | 98% | 94.5% | 94.1% | 97.6% | 90.8% | 86.8% | 73.9% | 4.36% |
